# Reference: the supplement of paper PMC8728848
# This is one part of the list.
# What was measured:
# Experiment in all cases: glycan array binding signal (z-score within array); higher = stronger binding
# Conditions in all cases: glycan notation: IUPAC condensed, linker removed
# [1] = target: Fuc(a1-2)[GalNAc(b1-3)]Gal
# In short: (§1)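 Columns mapping to the same glycan were averaged after glycan names were converted to IUPAC-condensed notation. The data come from 3228 arrays in the Consortium for Functional Glycomics database, limited to those with an available protein sequence. Binding is reported as a within-array Z-score averaged across arrays of one protein sequence and across linkers.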
# Fuc(a1-3)GlcNAc = target: Fuc(a1-3)GlcNAc
# In short: as §1
# [2] = target: Fuc(a1-3)[Gal(b1-4)]Glc6S
# In short: as §1
# [3] = target: Fuc(a1-3)[Gal(b1-4)]GlcNAc
# In short: as §1
# [4] = target: Fuc(a1-3)[Gal(b1-4)]GlcNAc(b1-2)Man
# In short: as §1
# [5] = target: Fuc(a1-3)[Gal(b1-4)]GlcNAc(b1-2)Man(a1-3)[Fuc(a1-3)[Gal(b1-4)]GlcNAc(b1-2)Man(a1-6)]Man(b1-4)GlcNAc(b1-4)GlcNAc
# In short: as §1
# [6] = target: Fuc(a1-3)[Gal(b1-4)]GlcNAc(b1-2)Man(a1-3)[Fuc(a1-3)[Gal(b1-4)]GlcNAc(b1-2)Man(a1-6)]Man(b1-4)GlcNAc(b1-4)[Fuc(a1-6)]GlcNAc
# In short: as §1
# [7] = target: Fuc(a1-3)[Gal(b1-4)]GlcNAc(b1-3)Gal(b1-3)[Fuc(a1-4)]GlcNAc
# In short: as §1
# [8] = target: Fuc(a1-3)[Gal(b1-4)]GlcNAc(b1-3)Gal(b1-4)[Fuc(a1-3)]GlcNAc
# In short: as §1
# [9] = target: Fuc(a1-3)[Gal(b1-4)]GlcNAc(b1-3)Gal(b1-4)[Fuc(a1-3)]GlcNAc(b1-3)Gal(b1-4)[Fuc(a1-3)]GlcNAc
# In short: as §1
# [10] = target: Fuc(a1-3)[Gal(b1-4)]GlcNAc(b1-3)GalNAc
# In short: as §1
# [11] = target: Fuc(a1-3)[Gal(b1-4)]GlcNAc(b1-6)GalNAc
# In short: as §1
# [12] = target: Fuc(a1-3)[Gal(b1-4)]GlcNAc(b1-6)[Gal(b1-3)GlcNAc(b1-3)]Gal(b1-4)Glc
# In short: as §1
# [13] = target: Fuc(a1-3)[Gal(b1-4)]GlcNAc6S
# In short: as §1
# [14] = target: Fuc(a1-3)[Gal3S(b1-4)]Glc
# In short: as §1
# [15] = target: Fuc(a1-3)[Gal3S(b1-4)]GlcNAc
# In short: as §1
# [16] = target: Fuc(a1-3)[Gal3S(b1-4)]GlcNAc6S
# In short: as §1
# [17] = target: Fuc(a1-3)[GalNAc(b1-4)]GlcNAc
# In short: as §1
# [18] = target: Fuc(a1-3)[GalNAc(b1-4)]GlcNAc6S
# In short: as §1
# Fuc(a1-4)GlcNAc = target: Fuc(a1-4)GlcNAc
# In short: as §1
# Fuc(b1-3)GlcNAc = target: Fuc(b1-3)GlcNAc
# In short: as §1
# Gal(a1-2)Gal = target: Gal(a1-2)Gal
# In short: as §1
# Gal(a1-3)Gal = target: Gal(a1-3)Gal
# In short: as §1
# Gal(a1-3)Gal(b1-3)GlcNAc = target: Gal(a1-3)Gal(b1-3)GlcNAc
# In short: as §1
# [19] = target: Gal(a1-3)Gal(b1-3)GlcNAc(b1-2)Man
# In short: as §1
# [20] = target: Gal(a1-3)Gal(b1-3)GlcNAc(b1-2)Man(a1-3)[Gal(a1-3)Gal(b1-3)GlcNAc(b1-2)Man(a1-6)]Man(b1-4)GlcNAc(b1-4)GlcNAc
# In short: as §1
# [21] = target: Gal(a1-3)Gal(b1-3)GlcNAc(b1-3)GalNAc
# In short: as §1
# [22] = target: Gal(a1-3)Gal(b1-3)GlcNAc(b1-6)GalNAc
# In short: as §1
# [23] = target: Gal(a1-3)Gal(b1-3)[Fuc(a1-4)]GlcNAc(b1-2)Man(a1-3)[Gal(a1-3)Gal(b1-3)[Fuc(a1-4)]GlcNAc(b1-2)Man(a1-6)]Man(b1-4)GlcNAc(b1-4)GlcNAc
# In short: as §1
# Gal(a1-3)Gal(b1-4)Glc = target: Gal(a1-3)Gal(b1-4)Glc
# In short: as §1
# Gal(a1-3)Gal(b1-4)GlcNAc = target: Gal(a1-3)Gal(b1-4)GlcNAc
# In short: as §1
# [24] = target: Gal(a1-3)Gal(b1-4)GlcNAc(b1-2)Man
# In short: as §1
# [25] = target: Gal(a1-3)Gal(b1-4)GlcNAc(b1-2)Man(a1-3)[Gal(a1-3)Gal(b1-4)GlcNAc(b1-2)Man(a1-6)]Man(b1-4)GlcNAc(b1-4)GlcNAc
# In short: as §1
# [26] = target: Gal(a1-3)Gal(b1-4)GlcNAc(b1-3)GalNAc
# In short: as §1
# [27] = target: Gal(a1-3)Gal(b1-4)GlcNAc(b1-6)GalNAc
# In short: as §1
# [28] = target: Gal(a1-3)Gal(b1-4)[Fuc(a1-3)]GlcNAc
# In short: as §1
# [29] = target: Gal(a1-3)Gal(b1-4)[Fuc(a1-3)]GlcNAc(b1-2)Man(a1-3)[Gal(a1-3)Gal(b1-4)[Fuc(a1-3)]GlcNAc(b1-2)Man(a1-6)]Man(b1-4)GlcNAc(b1-4)GlcNAc
# In short: as §1
binder,measurement,setting,value
"Epa3 (Candida glabrata), Q6VBI8_CANGB (protein) MGSSHHHHHHSSGLVPRGSHMNDLGFSLFEKRELSSQNPFGYPIGCSPQDVAIIPGLTMELYSYPIVSGTPPNCYDASYVDPEYPRTGYLKRKMVGKSTGVTGNLNYKYSVEKACMVKYGNLPAGYNYNEPLTVSNFTMILYGYFKAQTTGLHTFFVNADDLLYINFGAGNAFDCCKREDSKTKLGEYVAYDIWHVDSSKNKVSLFLEKDLYYPIRMFFNNIGKDSSLDLSFSVNGATDQISDFSGYLYSVPDQPDTCPAHIGYDTTCR",glycan array binding signal (z-score),[1],-0.012
same,glycan array binding signal (z-score),Fuc(a1-3)GlcNAc,-0.248
same,glycan array binding signal (z-score),[2],-0.095
same,glycan array binding signal (z-score),[3],0.024
same,glycan array binding signal (z-score),[4],0.065
same,glycan array binding signal (z-score),[5],-0.046
same,glycan array binding signal (z-score),[6],-0.158
same,glycan array binding signal (z-score),[7],-0.24
same,glycan array binding signal (z-score),[8],-0.032
same,glycan array binding signal (z-score),[9],-0.271
same,glycan array binding signal (z-score),[10],0.135
same,glycan array binding signal (z-score),[11],0.221
same,glycan array binding signal (z-score),[12],-0.151
same,glycan array binding signal (z-score),[13],0.045
same,glycan array binding signal (z-score),[14],-0.048
same,glycan array binding signal (z-score),[15],-0.151
same,glycan array binding signal (z-score),[16],0.406
same,glycan array binding signal (z-score),[17],0.843
same,glycan array binding signal (z-score),[18],-0.067
same,glycan array binding signal (z-score),Fuc(a1-4)GlcNAc,-0.181
same,glycan array binding signal (z-score),Fuc(b1-3)GlcNAc,-0.16
same,glycan array binding signal (z-score),Gal(a1-2)Gal,-0.254
same,glycan array binding signal (z-score),Gal(a1-3)Gal,-0.059
same,glycan array binding signal (z-score),Gal(a1-3)Gal(b1-3)GlcNAc,-0.295
same,glycan array binding signal (z-score),[19],0.073
same,glycan array binding signal (z-score),[20],0.151
same,glycan array binding signal (z-score),[21],0.014
same,glycan array binding signal (z-score),[22],-0.278
same,glycan array binding signal (z-score),[23],-0.23
same,glycan array binding signal (z-score),Gal(a1-3)Gal(b1-4)Glc,-0.388
same,glycan array binding signal (z-score),Gal(a1-3)Gal(b1-4)GlcNAc,-0.277
same,glycan array binding signal (z-score),[24],-0.215
same,glycan array binding signal (z-score),[25],0.16
same,glycan array binding signal (z-score),[26],-0.261
same,glycan array binding signal (z-score),[27],-0.218
same,glycan array binding signal (z-score),[28],-0.161
same,glycan array binding signal (z-score),[29],-0.1
